Measured values from PubChem BioAssay AID686978 (National Center for Advancing Translational Sciences (NCATS), 2013).
Several values for one entry are separate records, joined by “and”; a condition that tells them apart may be missing. Equal entries are not always repeated. About 64,000 (15%) of roughly 420,000 compounds were called active. Inconclusive means that the source gave no clear call. Such entries were picked first, then a sample of the others. Calls come from the whole dose curve; as a rule, active = well fitted inhibition curve with a large enough effect; inconclusive = small, poorly fitted or top-dose-only effect; inactive = flat fitted curve, though single readings scatter. Where the call is inconclusive, the potency comes from a doubtful curve fit.
% is set by controls: 0 for no effect and ±100 for the full control effect; potency is the fitted concentration of half-maximal effect; tags give direction and shape of the fitted curve.

Assay: qHTS for Inhibitors of human tyrosyl-DNA phosphodiesterase 1 (TDP1): qHTS in cells in absence of CPT; note: nearly all actives have a fitted effect of over 55% in size
Settings: DT40 Tdp1-/- hTDP1 cells, no CPT, ATP luminescence, 48 h; activity change, negative = growth inhibition: at 46.2 µM (top of the series)
In short: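 Luminescent ATP content (CellTiter-Glo) served as the growth readout. Knockout chicken DT40 cells expressing human TDP1 were exposed to compounds without camptothecin for a minimum 48 hr at 37 °C.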
For CCC(C)c1nc2ccsc2c(N2CCOC2=O)c1-c1ccccc1 (stereo unspecified), the Potency was inconclusive: 10.3 µM [inhibitor, partial curve]. With Cc1[nH]n(C(N)=S)c(=O)c1N=Nc1ccc(Br)cc1 the Potency was active: 16.4 µM. For CCCCCCSc1ccc(-c2nc3ccc(Cl)cn3c2NCc2ccccc2)cc1, the Potency was inconclusive: 29.1 µM [inhibitor, single point]. For Cc1cc(C)c(S(=O)(=O)NCC2CCC(C(=O)NCCCN3CCOCC3)CC2)c(C)c1 (stereo unspecified), the Potency was inconclusive: 18.4 µM [inhibitor, partial curve]. With Cc1ccc(-c2cnc(C(O)c3cccc(C)c3C)[nH]2)cc1 (stereo unspecified) the Potency was inconclusive: 29.1 µM [inhibitor, single point]. In the case of O=C(Nc1ccc(-c2nc3ccccc3o2)cc1)c1ccc(N2CCOCC2)c([N+](=O)[O-])c1, the Potency is reported as active: 4.61 µM. For O=c1oc2cc(O)ccc2cc1S(=O)(=O)c1ccccc1, the Potency was “inactive”. In the case of CCN(CC)S(=O)(=O)c1ccc2c(c1)N(CC(=O)Nc1ccc(F)cc1)C(=O)CO2, the Potency is reported as inconclusive: 25.9 µM [inhibitor, single point]. In the case of CCOc1ccccc1CNC(=O)CCCc1cn(C)c2ccccc12, the Potency is reported as inconclusive: 29.1 µM [inhibitor, single point]. For Cc1cccc(C)c1NC(=O)NS(=O)(=O)c1ccccc1, the Potency was “inactive”. For CCC(C)(C)NC(=O)C(c1ccco1)N(C(=O)c1csnn1)c1cccc(F)c1 (stereo unspecified), the Potency was “inactive”. For CSc1nnc(-c2ccc(Br)s2)n1C, the Potency was “inactive”. In the case of CC(=O)Oc1ccc(-c2cccc(C(=O)OCC(=O)Nc3ccccc3Oc3ccccc3)c2)cc1, the Potency is reported as active: 18.4 µM. With N/C(=N\OC(=O)c1ccc(Cl)cc1[N+](=O)[O-])c1cccnc1 the Potency was inconclusive: 32.6 µM [inhibitor, single point]. For CSCc1ccc(C(=O)NCCSc2ccc(Br)cc2)cc1, the Potency was inconclusive: 29.1 µM [inhibitor, single point]. With CNC(=O)CNC(=O)Nc1ccc(C)cc1 the Potency was “inactive”. For Cc1ccc(NC(=S)NNC(=O)CCn2cc(C)cn2)cc1, the Potency was “inactive”. For COc1ccc(CCNC(=O)CCCCCn2c(SCC(N)=O)nc3cc4c(cc3c2=O)OCO4)cc1OC, the Potency was inconclusive: 23.1 µM [inhibitor, single point] and inconclusive: 14.6 µM [inhibitor, single point]. With Cc1ccc(C(O)c2ncc(-c3ccc(C(F)(F)F)cc3)[nH]2)cc1F (stereo unspecified) the Potency was active: 20.6 µM. For CCNC(=O)CN1C(=O)NC(Cc2ccccc2)(Cc2ccccc2)C1=O, the Potency was “inactive”. With CCc1cccc(C)c1NC(=O)N(C)C1CCCCC1 the Potency was inconclusive: 1.64 µM [inhibitor, partial curve, poor fit]. In the case of Cc1ccnc2nc(C(=O)OCC(=O)NCc3cccc(Cl)c3)nn12, the Potency is reported as “inactive”. With CN(C)C(CNC(=O)c1c(F)cccc1Cl)c1ccco1 (stereo unspecified) the Potency was “inactive”. With Fc1cc(NC(=S)NCc2ccc(CNC(=S)Nc3ccc(Cl)c(F)c3)cc2)ccc1Cl the Potency was active: 13 µM. In the case of Cc1ccc(N(Cc2ccccc2)C(=O)c2cccc(F)c2)cc1, the Potency is reported as inconclusive: 20.6 µM [inhibitor, single point]. For CCCn1c(=O)c2ccccc2n2c(SCCOc3ccccc3)nnc12, the Potency was “inactive”. In the case of CC(C)S(=O)(=O)c1nsc2nc(=O)c(/C=C3\C=Nc4ccccc43)c(N)n12, the activity change, negative = growth inhibition is reported as inconclusive: -31.8% [inhibitor]. In the case of Cc1cc(C)c(CN2CCN(C(=O)CC[C@H]3O[C@@H](n4ccc(=O)[nH]c4=O)[C@H](O)[C@@H]3O)CC2)c(C)c1, the Potency is reported as inconclusive: 29.1 µM [inhibitor, single point]. With CN(C)CCCN1C(=O)c2cccc3c([N+](=O)[O-])ccc(c23)C1=O the Potency was active: 2.31 µM. With Cc1ccc(CNC(=O)C2COc3ccccc3O2)cc1 (stereo unspecified) the Potency was inconclusive: 16.4 µM [inhibitor, partial curve]. With CC(C)Oc1cc(NC(=O)CSCC(=O)Nc2cccc(C(F)(F)F)c2)c(Cl)cc1Cl the Potency was “inactive”. With CCOC(=O)Cc1csc(NC(=O)c2ccc(S(=O)(=O)N3CCCCC3)cc2)n1 the Potency was inconclusive: 25.9 µM [inhibitor, partial curve]. In the case of Cc1ccc(F)cc1NS(=O)(=O)c1ccc(Cl)s1, the Potency is reported as inconclusive: 25.9 µM [inhibitor, single point]. With COC(=O)c1sc(N2CCN(Cc3ccccc3)CC2)nc1N the Potency was inconclusive: 10.3 µM [inhibitor, partial curve]. In the case of CC(C)C(=O)N1CCC(n2nccc2NC(=O)CCc2ccccc2)CC1, the Potency is reported as inconclusive: 29.1 µM [inhibitor, single point]. With CCOc1ccc(S(=O)(=O)N2CCc3cc(OC)c(OC)cc3C2)cc1 the Potency was inconclusive: 7.31 µM [inhibitor, partial curve, poor fit]. In the case of COc1cc(NC(=O)CN2CCN(Cc3ccc4c(c3)OCO4)CC2)cc(OC)c1, the activity change, negative = growth inhibition is reported as inconclusive: -32.1% [inhibitor]. For CCOc1ccc(C2C(C#N)=C(N)SC(N)=C2C#N)cc1OCC, the Potency was inconclusive: 16.4 µM [inhibitor, partial curve]. For Nc1nnc(COc2cccc(C(F)(F)F)c2)s1, the Potency was inconclusive: 20.6 µM [inhibitor, single point]. In the case of CCN(CC)CCCC(C)NC(=O)c1c(NC(=O)c2ccccc2)sc2c1CCCC2 (stereo unspecified), the Potency is reported as inconclusive: 29.1 µM [inhibitor, single point]. With CC1CCN(C(=S)NC2CCCCC2)CC1 the Potency was inconclusive: 23.1 µM [inhibitor, single point]. In the case of Cc1ccc(C)c(N(C)C(=O)C2CCN(c3ncnc4c3nc3n4CCCCC3)CC2)c1, the Potency is reported as inconclusive: 29.1 µM [inhibitor, single point]. With COc1ccc(Oc2ccc(/C=N/NC(=O)c3cccnc3)cc2[N+](=O)[O-])cc1 the Potency was active: 20.6 µM. For CCOc1ccc(NC(=O)N(C2CCCCC2)C(C)c2cccnc2)cc1 (stereo unspecified), the Potency was “inactive”. For COc1ccccc1CNC(=O)c1csc(Cc2ccc(Cl)cc2)n1, the Potency was inconclusive: 29.1 µM [inhibitor, single point]. With Cc1ccc(CNCc2c(C(=O)O)c(C)n(Cc3ccc(C)cc3)c2C)cc1 the Potency was inconclusive: 29.1 µM [inhibitor, single point]. In the case of Cc1ccc(-c2nc(N)sc2-c2ccccc2)cc1C, the Potency is reported as inconclusive: 20.6 µM [inhibitor, single point]. With O=[N+]([O-])c1ccc(C=NN2CCOCC2)s1 the Potency was inconclusive: 29.1 µM [inhibitor, single point]. In the case of CC(=O)c1cccc(NC(=O)C2CCCN(S(=O)(=O)c3ccccc3)C2)c1 (stereo unspecified), the Potency is reported as inconclusive: 29.1 µM [inhibitor, single point]. In the case of CCOC(=O)C1CCCN(CC(=O)Nc2c(C(=O)OC)[nH]c3ccccc23)C1 (stereo unspecified), the activity change, negative = growth inhibition is reported as inconclusive: -32.5% [inhibitor]. In the case of O=C(O)c1cccc(Nc2nc(-c3ccc([N+](=O)[O-])cc3)nc3ccccc23)c1, the Potency is reported as “inactive”. For O=C(Cc1ccccc1Cl)NC1(O)C(=O)c2ccccc2C1=O, the Potency was inconclusive: 29.1 µM [inhibitor, single point]. For Cc1cc(SCC(=O)c2cc3ccccc3o2)nc2ccccc12, the Potency was “inactive”. With Cc1ccc(-n2c(-c3ccccc3)n[nH]c2=S)c(C)c1 the Potency was “inactive”. In the case of Cc1cccc(NC(=S)NC(=O)Cc2ccccc2)c1C, the Potency is reported as inconclusive: 23.1 µM [inhibitor, single point]. For COc1ccc(-c2nc3ccccc3c(=O)n2CCOc2c(C)cccc2C)cc1, the activity change, negative = growth inhibition was inconclusive: -34.2% [inhibitor]. With OC(c1cccc(CN2CCCCC2)c1)c1ncc(-c2ccccc2Cl)[nH]1 (stereo unspecified) the Potency was “inactive”. In the case of COc1ccc2c(c1)C=C([C@@H]1C[C@H]3CN(c4ccccc4)C(=O)[C@]34CCCN14)CO2, the Potency is reported as active: 20.6 µM. In the case of C=CCN(CC=C)Cc1cc(=O)oc2cc(C)c(C)cc12, the Potency is reported as inconclusive: 29.1 µM [inhibitor, single point]. With COc1cccc(CNC(=O)COc2ccc(C(=O)c3ccccc3)cc2)c1 the Potency was active: 16.4 µM. In the case of Cc1ccc(S(=O)(=O)N(C)CC(=O)N2CCc3ccccc32)cc1, the activity change, negative = growth inhibition is reported as inconclusive: -15.9% [inhibitor]. In the case of Cc1ccc(N(CC(=O)NCc2ccc3c(c2)OCO3)C(=O)CCC(=O)Nc2ccccn2)cc1, the activity change, negative = growth inhibition is reported as inconclusive: -33.6% [inhibitor]. With CCN=C1S/C(=C\c2cc(Cl)c(OC)c(OC)c2)C(=O)N1CC the activity change, negative = growth inhibition was inconclusive: -30.8% [inhibitor]. For CCc1cc(-c2onc(C)c2-c2cscn2)c(O)cc1OC, the Potency was inconclusive: 18.4 µM [inhibitor, single point]. For Cc1ccc(-c2csc(NCCn3c(-c4ccncc4)nc4ccccc43)n2)cc1, the Potency was active: 23.1 µM. With Cc1cc(C[n+]2ccsc2N)c2ncccc2c1 the Potency was inconclusive: 23.1 µM [inhibitor, single point]. In the case of O=C(Nc1ccccc1C(=O)NCC1CCCO1)c1ccco1 (stereo unspecified), the Potency is reported as inconclusive: 0.0291 µM [inhibitor, full curve, poor fit]. For COc1cc(/C=C2/C(=N)N3C(=NC2=O)SN=C3S(C)(=O)=O)ccc1OS(=O)(=O)c1ccc(C)cc1, the Potency was inconclusive: 20.6 µM [inhibitor, single point]. For Cc1cccc(NC(=O)C2c3ccccc3C(=O)N3CCc4ccccc4C23)n1 (stereo unspecified), the Potency was inconclusive: 28.2 µM [inhibitor, single point]. In the case of CCn1c(=O)cc(OCC(=O)Nc2cc(OC)c(OC)c(OC)c2)c2ccccc21, the Potency is reported as inconclusive: 25.9 µM [inhibitor, single point]. With COCc1cc(C)nc(SCC(=O)NC2CCCCC2C)c1C#N (stereo unspecified) the Potency was “inactive”.
